# Out of some 410,000 compounds screened, about 5,000 (1.2%) were called active. Inconclusive results, whose numbers are uncertain, are shown with a selection of clear calls. The call rests on the fitted dose curve; in most records, active means well fitted inhibition curve with a large enough effect; inconclusive means small, poorly fitted or top-dose-only effect; inactive means no such curve, though single readings can be large or run the other way. A potency beside an inconclusive call is a rough fit, not a confirmed value.
# Test: qHTS for Inhibitors of TGF-b; further: nearly all actives have a fitted effect of over 65% in size
# Conditions: HepG2 CAGA-GFP TGF-b/SMAD3 reporter, GFP fluorescence, 18 h, TGF-beta stimulated, 500 pg/mL final; series mostly up to 46.1 µM
# In short: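 Per well, imaged GFP fluorescence of HEPG2 CAGA-GFP cells gives the signal; cells get compound, then TGF-beta (500 pg/mL final), 18 h at 37 degrees C; %Activity versus -TGF-beta and +DMSO controls.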
# Potency means the concentration at half of the fitted maximal effect; tags describe the fitted curve by direction and shape.
row,SMILES,Potency
1,CC1CCN(CCOCCOc2ccc(Br)cc2Cl)CC1,inactive
2,CCOc1ccccc1CNC(c1ccccc1)c1ccccc1,"inconclusive: 35.5 µM [inhibitor, single point]"
3,COc1ccc(C2(O)CC3CCC(C2)N3c2cc(C)nc(-c3ccccc3)n2)cc1 (centres undefined),"inconclusive: 35.5 µM [inhibitor, single point]"
4,Nc1c(Cl)ncnc1Nc1ccc(C(=O)O)cc1,inactive
5,N#Cc1nc(Cc2cccc3ccccc23)oc1NCc1ccco1,"inconclusive: 3.16 µM [inhibitor, full curve, poor fit]"
6,CC1=NN=C(c2ccccc2)C(c2c[nH]c3ccccc23)N1O (centres undefined),"inconclusive: 5.62 µM [inhibitor, single point]"
7,O=C(CSc1n[nH]c(-c2ccccn2)n1)Nc1cccc(Cl)c1,"inconclusive: 11.2 µM [inhibitor, partial curve, poor fit]"
8,O=C(NCC1CCCO1)c1csc(Nc2cccc3ccccc23)n1 (centres undefined),"inconclusive: 35.5 µM [inhibitor, partial curve, poor fit]"
9,CN(C(=O)/C=C/c1ccccc1)C1CCS(=O)(=O)C1 (centres undefined),inactive
10,COC(=O)NN1C(=O)C(c2ccccc2)=C(c2ccc(Cl)cc2)C1=O,"inconclusive: 6.31 µM [inhibitor, single point]"
11,COc1cccc(C2CC(=O)N3CN(C4CCCCC4)CSC3=C2C#N)c1 (centres undefined),inactive
12,COc1ccccc1Nc1c2c(nc3ccccc13)CCC2,active: 17.8 µM
13,CC1=NN(c2nc3ccccc3[nH]2)C(=O)C1Cc1ccccc1 (centres undefined),"inconclusive: 3.98 µM [inhibitor, full curve, poor fit]"
14,N#Cc1c(NC(=O)C2CC(c3ccccc3Cl)=NO2)sc2c1CCC2 (centres undefined),inactive
15,CC(C)c1nnc(NC(=O)c2nc(S(=O)(=O)Cc3ccccc3F)ncc2Cl)s1,active: 12.6 µM
16,CCOc1ccccc1CN(CCc1ccc2c(c1)OCO2)Cc1cccc(OC)c1OC,"inconclusive: 35.5 µM [inhibitor, single point]"
17,CN(C)c1ccc(NC(=O)CSC2=Nc3ccccc3C3=NC(CC(=O)NCc4ccccc4)C(=O)N23)cc1 (centres undefined),"inconclusive: 0.316 µM [inhibitor, full curve, poor fit]"
18,COc1cccc(-c2c(C(=O)N/N=C(\C)c3ccc(Cl)s3)nnn2-c2nonc2N)c1,inactive
19,CC(C)CC(NC(=O)C1CCC(C)CC1)C(=O)Nc1ccccn1 (centres undefined),"inconclusive: 14.1 µM [inhibitor, partial curve, poor fit]"
20,COc1ccc(NC(=O)c2ccccc2)cc1NS(=O)(=O)c1ccc(F)cc1,"inconclusive: 3.98 µM [inhibitor, partial curve, poor fit]"
21,CCOC(=O)c1c(C)n(-c2ccc(F)cc2)c2ccc(O)cc12,inactive
22,O=C(Nc1cccc(C(F)(F)F)c1)c1cccnc1NCCO,inactive

row,SMILES,Potency
1,CCc1ccc(-c2cc(C)no2)cc1S(=O)(=O)Nc1ccc(Cl)cc1,"inconclusive: 35.5 µM [inhibitor, single point]"
2,Cc1ccc(S(=O)(=O)NCCC(=O)Nc2ccc(C)cc2C(=O)c2ccccc2)cc1,"inconclusive: 20 µM [inhibitor, single point]"
3,COc1ccc(CNC(=O)CN(C)Cc2ccc(C(C)(C)C)cc2)cc1,"inconclusive: 25.1 µM [inhibitor, partial curve, poor fit]"
4,COc1ccc(CCNCC(O)COc2ccc(OC)cc2C(C)(C)C)cc1 (centres undefined),"inconclusive: 35.5 µM [inhibitor, single point]"
5,FC(F)(F)c1cc(CCN2CCNC[C@@H]2CC2CCCCC2)cc(C(F)(F)F)c1,"inconclusive: 28.2 µM [inhibitor, single point]"
6,COc1ccccc1CNC(=O)CCC1N=C2c3ccccc3N=C(SCC(=O)NCCc3ccc(OC)c(OC)c3)N2C1=O (centres undefined),inactive
7,CC(=O)OCCNc1cc(Sc2nc3ccccc3[nH]2)c2nonc2c1[N+](=O)[O-],"inconclusive: 35.5 µM [inhibitor, single point]"
8,CCn1c(=O)c2ccccc2n2c(SCC(N)=O)nnc12,inactive
9,O=C(NCCN=C1NS(=O)(=O)c2ccccc21)c1ccco1,"inconclusive: 3.98 µM [inhibitor, single point]"
10,CC(=O)N1c2ccc(S(=O)(=O)N3CCCC(C(=O)N4CCC(C)CC4)C3)cc2CC1C (centres undefined),inactive
11,CC(C)c1ccc(NC(=O)c2ccc(Br)o2)cc1,"inconclusive: 22.4 µM [inhibitor, single point]"
12,O=C(c1ccc(-c2cc3ccccc3oc2=O)cc1)N1CCN(c2ccc(Cl)cc2[N+](=O)[O-])CC1,"inconclusive: 2.51 µM [inhibitor, partial curve, poor fit]"
13,Cc1ccc(-c2nn3c(-c4ccc(C)cc4)nnc3c3ccccc23)cc1,inactive
14,CC12CCC3c4ccccc4CCC3(CO1)C2 (centres undefined),inactive
15,O=C(Nc1ccc(S(=O)(=O)Nc2cnc3ccccc3n2)cc1)c1ccc(Cl)c([N+](=O)[O-])c1,"inconclusive: 35.5 µM [inhibitor, single point]"
16,CCOC(=O)c1c(NC(=O)C(C)Sc2c[nH]c3ccccc23)sc2c1CCC2 (centres undefined),"inconclusive: 35.5 µM [inhibitor, single point]"
17,Oc1ccccc1N=Cc1ccc[nH]1,"inconclusive: 17.8 µM [inhibitor, single point]"
18,COc1ccc(CCNC(=O)c2nn(C)c3c2CSc2ccccc2-3)cc1OC,"inconclusive: 35.5 µM [inhibitor, single point]"
19,O=C(NCc1ccccc1)C(=O)NCC(c1cccnc1)N1CCN(c2ccccc2)CC1 (centres undefined),"inconclusive: 35.5 µM [inhibitor, single point]"
20,CC(=O)Nc1ccc(S(=O)(=O)NCCc2csc3nc(-c4cccc(C)c4)nn23)cc1,"inconclusive: 5.62 µM [inhibitor, single point]"
21,CC(NC(=O)Cn1cnc2c1c(=O)n(C)c(=O)n2C)c1ccccc1 (centres undefined),"inconclusive: 8.91 µM [inhibitor, partial curve, poor fit]"
22,O=[N+]([O-])c1ccc(C=Nc2cccc3ccccc23)s1,active: 15.8 µM
